Assay results: publication PMC7819943, “Rice protein-binding microarrays: a tool to detect cis-acting elements near promoter regions in rice”
This is one part of the list.

target: T1, OsWOX13 (Oryza sativa, UniProt Q5QMM3 1-267); test: protein-binding microarray (RPBM); PBS, 2% BSA, 51.3 ng/ul salmon testes DNA, 50 uM zinc acetate, 200 nM TF, 25 C, 1 h; high values mean tight binding; conditions: protein: recombinant; tags: N-terminal polyhistidine and DsRed monomer fusion (pET32a); label: CyDye5-dUTP incorporated in the synthesized complementary strand; 3' TTTTT single-stranded linker to array surface; dsDNA, one strand shown
T1 sequence: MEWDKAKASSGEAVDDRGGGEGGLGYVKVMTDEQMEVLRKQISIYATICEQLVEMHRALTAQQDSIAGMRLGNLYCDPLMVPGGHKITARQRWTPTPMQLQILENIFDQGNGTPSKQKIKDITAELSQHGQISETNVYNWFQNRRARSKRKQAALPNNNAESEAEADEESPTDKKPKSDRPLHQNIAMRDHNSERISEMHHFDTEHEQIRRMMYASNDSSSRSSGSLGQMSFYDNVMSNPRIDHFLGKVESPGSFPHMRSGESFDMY
Method in brief: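 A custom Agilent array was converted to double-stranded form by primer extension with Cy5-dUTP and blocked with 2% BSA. Protein at 200 nM in PBS with 2% BSA, salmon testes DNA and 50 µM zinc acetate was applied for 1 h at 25 °C, followed by washing. The proteins were polyhistidine–DsRed N-terminal fusions of transcription factors, expressed in E. coli BL21-CodonPlus and Ni–NTA-purified. The binding signal is per-feature fluorescence intensity (arbitrary units) from an Axon 4000B scanner.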

Row | Sequence | binding signal
1 | CATAATCTGATGTGTTATTATTGATCTATGTAGAGGACACCGGAGTCACCTAGTGCAG | 8240 fluorescence intensity (a.u.)
2 | TGCTAATGATGGATTAATTAAGCTTAATAAATTCATCTCGCGGAGTCACCTAGTGCAG | 53700 fluorescence intensity (a.u.)
3 | TCTGATATATATATATATATATATATAACATCAGGGAGGACGGAGTCACCTAGTGCAG | 4830 fluorescence intensity (a.u.)
4 | ATTAACTATAGATGATTTGGAGCTAGTAGTTGGCTATACCCGGAGTCACCTAGTGCAG | 17100 fluorescence intensity (a.u.)
5 | AAAATAATTTGAATATATTGCTACCTGAAATTTGGATAATCGGAGTCACCTAGTGCAG | 6150 fluorescence intensity (a.u.)
6 | TCCATAACAAATTGACAAGTGACCTATCTATCCACATGTCCGGAGTCACCTAGTGCAG | 43600 fluorescence intensity (a.u.)
7 | ATATCTTGTCGCTTTCTCAATCAACAATTTGCGTTAACTTCGGAGTCACCTAGTGCAG | 5810 fluorescence intensity (a.u.)
8 | ATAAATTATTAATAGAGTGTATCGCTGGAGCGTAGAAATTCGGAGTCACCTAGTGCAG | 10800 fluorescence intensity (a.u.)
9 | CGATCAATTATTACACCAATTCAATCGAACACAAACATATCGGAGTCACCTAGTGCAG | 6840 fluorescence intensity (a.u.)
10 | CTTTGATCAGCTAATGGATGTGATTGACAAGATCAAGAATCGGAGTCACCTAGTGCAG | 37700 fluorescence intensity (a.u.)
11 | AAGAAAAGAAAAGAGATTAATTGATGGGTTCTACGATGACCGGAGTCACCTAGTGCAG | 6560 fluorescence intensity (a.u.)
12 | ACATGATTTATGATTTAGTGTATGTGCTTAAAGAATCCTTCGGAGTCACCTAGTGCAG | 18700 fluorescence intensity (a.u.)
13 | AATACTGAAATGACTGGAATGAAAGTCTGGTCGGGGATCCCGGAGTCACCTAGTGCAG | 3530 fluorescence intensity (a.u.)
14 | GGTTGATTTAATTCTGTATCTTTGATTTGATCTATAGCGTCGGAGTCACCTAGTGCAG | 51600 fluorescence intensity (a.u.)
15 | TTTTCCCAAATTAGTAGCCTAATTTAATTAATTCGGACGTCGGAGTCACCTAGTGCAG | 19800 fluorescence intensity (a.u.)
16 | CAATTAACTGGCAAGCTACATATGCCCCGCAATTAACCTACGGAGTCACCTAGTGCAG | 15400 fluorescence intensity (a.u.)
17 | CAAATTTGAATAAATGTAGTGAAAATTTTAGGATTGGGAGCGGAGTCACCTAGTGCAG | 4660 fluorescence intensity (a.u.)
18 | GTACTAAATTTTGTTATTCTTCTCCTCCAAGGGCATATCGCGGAGTCACCTAGTGCAG | 5010 fluorescence intensity (a.u.)
19 | AAATACTGAATTGATTTATTTGGATCTATTTGTAAAATAACGGAGTCACCTAGTGCAG | 6140 fluorescence intensity (a.u.)
20 | TCATGGTGTGATTAGGCCCAAAAGATTCGTCTCGCAATTTCGGAGTCACCTAGTGCAG | 3560 fluorescence intensity (a.u.)
21 | TTAAATTTAAAGCAGTCTGACTTTGATCTGAAACGGAGGGCGGAGTCACCTAGTGCAG | 14500 fluorescence intensity (a.u.)

Row | Sequence | binding signal
22 | TTATAAATTAAATTTTATGTAATGAAAATAATATCATTGGCGGAGTCACCTAGTGCAG | 23600 fluorescence intensity (a.u.)
23 | CTGCTAGATTGGTAGTGGCAACCGTGTGCTAGTGCAGCATCGGAGTCACCTAGTGCAG | 9160 fluorescence intensity (a.u.)
24 | CAACAAATTTAATGGTGCAATCGGGTCATGATTTGGATAACGGAGTCACCTAGTGCAG | 12700 fluorescence intensity (a.u.)
25 | TTCCAACAAATAAATTAAGATTTGCATTATTAGTTCCCTCCGGAGTCACCTAGTGCAG | 4120 fluorescence intensity (a.u.)
26 | GTGCAAGGATAATTGGTGATTATATTAGTGTATATTTAAGCGGAGTCACCTAGTGCAG | 18200 fluorescence intensity (a.u.)
27 | AATTGATAGAATTTACTTAGTTTTGAACATTGCGTCATACCGGAGTCACCTAGTGCAG | 22000 fluorescence intensity (a.u.)
28 | AATTTAAAATAGTTAATAATCAATTAATCACATTAATCCACGGAGTCACCTAGTGCAG | 15000 fluorescence intensity (a.u.)
29 | GTCTATATTTATTGACAGATTGATAGTATAAAGCTGTAAACGGAGTCACCTAGTGCAG | 34600 fluorescence intensity (a.u.)
30 | GGGCCGTGATTGATTTGCTGGCGTGTGTGATTTTCAGCTGCGGAGTCACCTAGTGCAG | 62900 fluorescence intensity (a.u.)
31 | TCTCTAATTTATTAGAGCACCACGTGTCGGCTTGAGAGCGCGGAGTCACCTAGTGCAG | 24600 fluorescence intensity (a.u.)
32 | GTAGAATTGATAGTCTTCTACCATAATGCAAATTCTTGTACGGAGTCACCTAGTGCAG | 8170 fluorescence intensity (a.u.)
33 | TATATTAACAAGTAATTTCTGTTTTGCATTCTTTTGTTCACGGAGTCACCTAGTGCAG | 6020 fluorescence intensity (a.u.)
34 | AATAACTAATTACATGGATTGCGACTACTTTGCGAGACGACGGAGTCACCTAGTGCAG | 15200 fluorescence intensity (a.u.)
35 | CTATGATTTGACAATATGGTGCTACAGTAAATATTCGCTACGGAGTCACCTAGTGCAG | 43700 fluorescence intensity (a.u.)
36 | GATGGGAATTTAATTGTAAACAGAAAAGAAAATTGGTGTTCGGAGTCACCTAGTGCAG | 10100 fluorescence intensity (a.u.)
37 | ATAATTTCCAAACTGATGTATCTACTTCTCTTGCTCTACTCGGAGTCACCTAGTGCAG | 4720 fluorescence intensity (a.u.)
38 | GCTAATTCATTCATATAATATAATCATCATATATGGGCCTCGGAGTCACCTAGTGCAG | 6740 fluorescence intensity (a.u.)
39 | TTCGCCTAAAATACCAATCAAAACTCTAGACACAGACACGCGGAGTCACCTAGTGCAG | 10700 fluorescence intensity (a.u.)
40 | CGTTTAATTTGCAGTCATTTATGAGCTTGTTTACTTCCTACGGAGTCACCTAGTGCAG | 23200 fluorescence intensity (a.u.)
41 | TACGCCTGATTGGATCCCCACCCCTATCTCCACTGACTGTCGGAGTCACCTAGTGCAG | 34100 fluorescence intensity (a.u.)
42 | ATCCAATTAATCCACGGATACCATGAAATTAAATGCTTGGCGGAGTCACCTAGTGCAG | 8980 fluorescence intensity (a.u.)
